According to PubChem BioAssay AID686978 (National Center for Advancing Translational Sciences (NCATS), 2013):
The campaign covered roughly 420,000 compounds. About 64,000 (15%) were called active. Inconclusive means that the source gave no clear call. Such entries were picked first, then a sample of the others. The call rests on the fitted dose curve; in most records, active means well fitted inhibition curve with a large enough effect; inconclusive means small, poorly fitted or top-dose-only effect; inactive means flat fitted curve, though single readings scatter. Potencies of inconclusive entries are left out as doubtful fits.

assay: qHTS for Inhibitors of human tyrosyl-DNA phosphodiesterase 1 (TDP1): qHTS in cells in absence of CPT; conditions: DT40 Tdp1-/- hTDP1 cells, no CPT, ATP luminescence, 48 h; activity change, negative = growth inhibition: at 46.2 µM (top of the series) unless noted; further: nearly all actives have a fitted effect of over 55% in size
Method in brief: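 Chicken DT40 Tdp1-/- cells complemented with human TDP1, screened without camptothecin (DMSO vehicle only), 400 cells/well. Compounds pin-transferred, cells incubated at 37 °C for at least 48 hr. Growth read as ATP-dependent luminescence (CellTiter-Glo, 30 min at RT).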
On the % scale 0 is the no-effect control and ±100 the full control effect; potency means the concentration at half of the fitted maximal effect; tags describe the fitted curve by direction and shape.

Structure (SMILES) | Potency | activity change, negative = growth inhibition
COCCNC(=S)N(Cc1cccs1)Cc1cc2cccc(C)c2[nH]c1=O | inconclusive [inhibitor, single point] | 
O=C1NC(=S)S/C1=C\c1ccc(SCc2ccccc2)o1 | inconclusive [inhibitor, partial curve] | 
COc1ccc(CCC(=O)N2CCCC(Nc3ccc(C)c(C)c3)C2)cc1OC (centres undefined) | inconclusive [inhibitor, single point] | 
CCCCCc1cc(O)c2c(C)cc(=O)oc2c1 | active: 16.4 µM | 
Cc1ccc(OCC(=O)NNC(=S)NCc2ccccc2)cc1 |  | inactive: -7.21%
OC(c1cccnc1)c1nc(-c2cccc(F)c2)cs1 (centres undefined) | inconclusive [inhibitor, single point] | 
Cc1cccc(C)c1NC(=O)C1CCCN1S(=O)(=O)c1cccc2nsnc12 (centres undefined) | inconclusive [inhibitor, single point] | 
COc1ccc(NC(=O)Cn2nnc(-c3nc(-c4ccncc4)no3)c2N)cc1OC |  | inactive: -5.36%
CCCC(=O)Nc1nc2ccc(C(=O)OCC)cc2s1 | inconclusive [inhibitor, partial curve, poor fit] | 
O=C(N/N=C/C=C/c1ccccc1)NC1CCCCC1 | active: 18.4 µM | 
CCOc1ccc(S(=O)(=O)NCCC2=CCCCC2)c2ccccc12 | inconclusive [inhibitor, single point] | 
C=CCNc1sc(C(=O)c2ccccc2)c(N)c1-c1nc2ccccc2s1 | inconclusive [inhibitor, single point] | 
COc1ccccc1CCNC(=O)C(=O)NCC(c1cccnc1)N1CCN(c2ccccc2)CC1 (centres undefined) | active: 11.6 µM | 
COc1ccc(Cl)cc1NC(=S)NCc1ccccn1 | inconclusive [inhibitor, single point] | 
O=C(CCn1c(=S)oc2ccccc21)Nc1ccccc1Br |  | inactive: -19.7%
COCCn1c(C)cc(O)c(C(c2ccccc2F)N2CCN(c3ccccc3)CC2)c1=O (centres undefined) |  | inactive: -19.4%
Cc1cc(=O)n(C)c(=O)n1CCCCCOc1cccc([N+](=O)[O-])c1 | inconclusive [inhibitor, partial curve] | 
Cc1cc(NC(=O)c2c(F)cccc2F)n(-c2nc3ccccc3[nH]2)n1 | active: 11.2 µM | 
O=C(Cc1coc(-c2ccc(F)cc2)n1)NC1CCCCC1 | inconclusive [inhibitor, single point] | 
CC(=O)Nc1ccc(S(=O)(=O)N(C)CC(=O)OCC(=O)Nc2cccnc2Cl)cc1 |  | inactive: -2.67%
O=C(NCc1ccccc1)[C@@H]1CCCN1C(=O)[C@@H]1CCCN1C(=O)c1cccc2ccccc12 | inconclusive [inhibitor, single point] | 
CCc1cccc(-n2nnc(S(=O)(=O)c3ccc(OC)cc3)c2C)c1 | inconclusive [inhibitor, single point] | 
O=c1cc(-c2ccc(O)c(O)c2)oc2ccc3ccccc3c12 | active: 14.6 µM | 
CCOc1ccc(CNC(=O)c2ccc(NC(=O)N3CCSc4ncccc43)cc2)cc1 | inconclusive [inhibitor, single point] | 
O=C(c1cc(Cl)nc2ccccc12)N(Cc1nnc(-c2ccc(Cl)cc2)o1)C1CC1 | active: 16.4 µM | 

Structure (SMILES) | Potency | activity change, negative = growth inhibition
CCc1nc2ccc(C(=O)NCCOc3ccc(OC)cc3)cn2c1N(CC)CCN(C)C |  | inactive: -13.6%
CNc1nc(NCc2ccc(N(C)C)cc2)c2sccc2n1 | active: 16.4 µM | 
OC(c1ccc(F)c(F)c1)c1ncc(-c2ccc(F)cc2)[nH]1 (centres undefined) |  | inactive: -14.1%
O=C(Nc1cccc(-c2cn3cccnc3n2)c1)c1ccco1 |  | inactive: -14.2%
COc1ccc(CNC(=O)c2nn(-c3ccccc3)cc2OC)cc1 |  | inconclusive: -33.8% [inhibitor]
O=C(NCc1ccccc1CN1CCCC1)C1CCN(C(=O)c2ccc(F)cc2)CC1 |  | inactive: -9.73%
COc1cccc(NC(=O)C2CCN(C(=O)[C@@H]3Cc4ccccc4CN3C(=O)OC(C)(C)C)CC2)c1 | inconclusive [inhibitor, single point] | 
COC(=O)c1ccc2nc(-c3ccc(F)cc3)c(CC3CCCCC3)n2c1 | active: 20.6 µM | 
Cc1ccc(S(=O)(=O)N(C)c2ccc3ccccc3c2)cc1 | inconclusive [inhibitor, single point] | 
COc1ccc(C2=C(C=C(C#N)C#N)C(c3ccccc3C)c3ccccc3O2)cc1OC (centres undefined) | active: 20.6 µM | 
CCN(CC)CCCNC(=O)CCc1c(C)nc2c(c1C)c(=O)n(C)c(=O)n2C | inconclusive [inhibitor, single point] | 
COc1cc2c(C#CCCO)c(-c3ccc(C#N)cc3)oc(=O)c2cc1OC |  | inconclusive: -31.8% [inhibitor]
CCCCCN(C(=O)CCC(=O)OCC(=O)c1c(C)cc(C)cc1C)c1c(N)n(CCCC)c(=O)[nH]c1=O | inconclusive [inhibitor, single point] | 
O=C(CN1CCN(Cc2ccc3c(c2)OCO3)CC1)Nc1ccc(F)cc1 |  | inactive: -0.621%
O=C(CNS(=O)(=O)c1ccc(F)cc1)Nc1ccc(C(F)(F)F)cc1 | active: 18.4 µM | 
Cc1cccc(Nc2ccc([N+](=O)[O-])cn2)c1 |  | inactive: -23.6%
NC(=O)C1(N2CCCCC2)CCN(CC(=O)Nc2ccccc2Sc2ccccc2)CC1 | inconclusive [inhibitor, single point] | 
COc1ccccc1-c1c(C(F)(F)F)oc2cc(OC(=O)c3ccc([N+](=O)[O-])cc3)ccc2c1=O | inconclusive [inhibitor, partial curve, poor fit] | 
Cc1ccc(NC(=O)CCCCCC2NC(=O)NC2C)cc1 (centres undefined) |  | inactive: 5.59%
Cc1cc(C)n(-c2ccccc2C#N)n1 |  | inactive: -3.19%
CCCN1C(=O)c2oc3cc(C)cc(C)c3c(=O)c2C1c1ccc(F)cc1 (centres undefined) |  | inactive: -4.36%
Cc1ccc(S(=O)(=O)N(C(=O)c2ccncc2)c2ccc(OC(=O)c3ccncc3)c3ccccc23)cc1 | active: 5.17 µM | 
Cc1ccc(NC(=O)c2ccc(CSc3nnc(-c4ccncc4)n3C)cc2)c(C)c1 |  | inactive: -10.8%
O=C1C(=Cc2cccc(Cl)c2)Cc2ccccc21 | inconclusive [inhibitor, single point] | 
N#Cc1cccc(NC(=O)c2ccc(S(=O)(=O)N3CCOCC3)cc2)c1 | inconclusive [inhibitor, single point] | 

Structure (SMILES) | Potency | activity change, negative = growth inhibition
COc1ccc(CCN2C(=O)N(c3ccc(OC)cc3)C(=O)C2CC(=O)Nc2ccccc2)cc1 (centres undefined) | inconclusive [inhibitor, single point] | 
C[C@@H]1Cn2cnc(C(=O)NCC(=O)OC(C)(C)C)c2C(=O)N1 |  | inactive: -16.7%
O=C(c1ccc(CSc2ccc(Cl)cc2)o1)N1CCOCC1 | inconclusive [inhibitor, single point] | 
Cc1ccc(S(=O)(=O)c2c(COC(=O)c3ccccc3Cl)c(-c3ccccc3)nn2C)cc1 | inconclusive [inhibitor, single point] | 
Cc1cc(C(=O)N2CCC2(C)C(=O)NCC(C)(C)C)nn1C (centres undefined) |  | inactive: -1.31%
CC1CCN(C(NC(=O)c2ccco2)C(=O)c2ccccc2)CC1 (centres undefined) |  | inactive: -16.8%
O=S(=O)(c1ccc2c(c1)OCCO2)N1CCC(c2nc3ccccc3[nH]2)CC1 | inconclusive [inhibitor, single point] | 
NS(=O)(=O)c1ccc(CCNC(=O)C(=O)NCC2OCCN2S(=O)(=O)c2ccc(Cl)cc2)cc1 (centres undefined) | inconclusive [inhibitor, partial curve, poor fit] | 
Cc1c(C(=O)NCc2ccc(Cl)c(Cl)c2)sc(=O)n1Cc1cccc(F)c1 | inconclusive [inhibitor, single point] | 
C=C(Cl)COc1ccc2c(CCC)cc(=O)oc2c1 | inconclusive [inhibitor, single point] | 
CCN(CC)c1nc(NN)nc(Nc2ccc(C)c(Cl)c2)n1 | inconclusive [inhibitor, single point] | 
Oc1ccc(C[C@@H]2CNCCN2CCc2cc(C(F)(F)F)cc(C(F)(F)F)c2)cc1 | inconclusive [inhibitor, single point] | 
CC1CCN(C(=O)c2ccc(NC(=O)c3cccs3)cc2)CC1 |  | inactive: -14%
Cc1nc2ccccc2c(=O)n1/N=C/c1cccs1 | inconclusive [inhibitor, single point] | 
COc1cccc(CSc2nc3nc(C)cc(C)n3n2)c1 |  | inactive: -1.82%
NC(=NC(=O)c1ccccc1)N1N=CCC1c1ccccc1 (centres undefined) |  | inactive: -16.3%
CCNc1nc(SCC(N)=O)nc2sc3c(c12)CCN(C)C3 | inconclusive [inhibitor, single point] | 
COc1ncc2nc(-c3ccccc3)c(=O)n(Cc3cccs3)c2n1 | inconclusive [inhibitor, partial curve] | 
Cc1cc(OC(C)C(=O)NNC(=O)Nc2ccc(F)cc2F)cc(C)c1Cl (centres undefined) |  | inactive: 3.29%
N=C(N)c1ccc(O)cc1 | inconclusive [inhibitor, single point] | 
COc1ccc(C(CNC(=O)c2ccc(NS(=O)(=O)c3ccc(F)cc3)cc2)N2CCOCC2)cc1 (centres undefined) | inconclusive [inhibitor, single point] | 
CCC1=NN2C(=N)/C(=C\c3ccc(OCCOc4ccc(NC(C)=O)cc4)cc3)C(=O)N=C2S1 |  | inactive: -6.43%
CCOc1ncccc1C(=O)Nc1nc(C(C)(C)C)cs1 | inconclusive [inhibitor, single point] | 
COc1ccc(F)c(CN2CCC(CO)(Cc3cccc(C(F)(F)F)c3)CC2)c1 | inconclusive [inhibitor, single point] | 
